# The supplement of paper PMC8728848
# This is one part of the list.
# B1: NPA (Narcissus pseudonarcissus), C0HM45 (protein)
# chain: DNILYSGETLSPGEFLNNGRYVFIMQEDCNLVLYDVDKPIWATNTGGLDRRCHLSMQSDGNLVVYSPRNNPIWASNTGGENGNYVCVLQKDRNVVIYGTARWATGTNIH
# How the values were obtained:
# Experiment in all cases: glycan array binding signal (z-score within array); higher = stronger binding
# Conditions in all cases: glycan notation: IUPAC condensed, linker removed
# [1] = target: Fuc(a1-2)Gal6S(b1-3)GlcNAc
# Outline: (§1)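 Glycan array binding is given as a within-array Z-score, which can be read as non-binding when negative. The arrays, 3228 of them, came from the Consortium for Functional Glycomics database and were retained only where the protein sequence was available. Z-scores were averaged across arrays of the same protein sequence at different concentrations or buffers and across linkers.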
# [2] = target: Fuc(a1-2)Gal6S(b1-3)GlcNAc6S
# Outline: as §1
# [3] = target: Fuc(a1-2)Gal6S(b1-4)Glc
# Outline: as §1
# [4] = target: Fuc(a1-2)Gal6S(b1-4)Glc6S
# Outline: as §1
# [5] = target: Fuc(a1-2)GlcNAc
# Outline: as §1
# [6] = target: Fuc(a1-2)[Gal(a1-3)]Gal
# Outline: as §1
# [7] = target: Fuc(a1-2)[Gal(a1-3)]Gal(b1-3)GalNAc
# Outline: as §1
# [8] = target: Fuc(a1-2)[Gal(a1-3)]Gal(b1-3)GalNAc(b1-3)Gal(a1-4)Gal(b1-4)Glc
# Outline: as §1
# [9] = target: Fuc(a1-2)[Gal(a1-3)]Gal(b1-3)GlcNAc
# Outline: as §1
# [10] = target: Fuc(a1-2)[Gal(a1-3)]Gal(b1-3)GlcNAc(b1-2)Man(a1-3)[Fuc(a1-2)[Gal(a1-3)]Gal(b1-3)GlcNAc(b1-2)Man(a1-6)]Man(b1-4)GlcNAc(b1-4)GlcNAc
# Outline: as §1
# [11] = target: Fuc(a1-2)[Gal(a1-3)]Gal(b1-3)GlcNAc(b1-2)Man(a1-3)[Fuc(a1-2)[Gal(a1-3)]Gal(b1-3)GlcNAc(b1-2)Man(a1-6)]Man(b1-4)GlcNAc(b1-4)[Fuc(a1-6)]GlcNAc
# Outline: as §1
# [12] = target: Fuc(a1-2)[Gal(a1-3)]Gal(b1-3)GlcNAc(b1-3)GalNAc
# Outline: as §1
# [13] = target: Fuc(a1-2)[Gal(a1-3)]Gal(b1-3)GlcNAc(b1-6)GalNAc
# Outline: as §1
# [14] = target: Fuc(a1-2)[Gal(a1-3)]Gal(b1-4)Glc
# Outline: as §1
# [15] = target: Fuc(a1-2)[Gal(a1-3)]Gal(b1-4)GlcNAc
# Outline: as §1
# [16] = target: Fuc(a1-2)[Gal(a1-3)]Gal(b1-4)GlcNAc(b1-2)Man
# Outline: as §1
# [17] = target: Fuc(a1-2)[Gal(a1-3)]Gal(b1-4)GlcNAc(b1-2)Man(a1-3)[Fuc(a1-2)[Gal(a1-3)]Gal(b1-4)GlcNAc(b1-2)Man(a1-6)]Man(b1-4)GlcNAc(b1-4)GlcNAc
# Outline: as §1
# [18] = target: Fuc(a1-2)[Gal(a1-3)]Gal(b1-4)GlcNAc(b1-2)Man(a1-3)[Fuc(a1-2)[Gal(a1-3)]Gal(b1-4)GlcNAc(b1-2)Man(a1-6)]Man(b1-4)GlcNAc(b1-4)[Fuc(a1-6)]GlcNAc
# Outline: as §1
# [19] = target: Fuc(a1-2)[Gal(a1-3)]Gal(b1-4)GlcNAc(b1-3)GalNAc
# Outline: as §1
# [20] = target: Fuc(a1-2)[Gal(a1-3)]Gal(b1-4)GlcNAc(b1-6)GalNAc
# Outline: as §1
# [21] = target: Fuc(a1-2)[Gal(a1-3)]Gal(b1-4)[Fuc(a1-3)]Glc
# Outline: as §1
# [22] = target: Fuc(a1-2)[Gal(a1-3)]Gal(b1-4)[Fuc(a1-3)]GlcNAc
# Outline: as §1
# [23] = target: Fuc(a1-2)[Gal(a1-3)]Gal(b1-4)[Fuc(a1-3)]GlcNAc(b1-3)GalNAc
# Outline: as §1
# [24] = target: Fuc(a1-2)[Gal(a1-4)]Gal(b1-4)GlcNAc
# Outline: as §1
# [25] = target: Fuc(a1-2)[GalNAc(a1-3)]Gal
# Outline: as §1
# [26] = target: Fuc(a1-2)[GalNAc(a1-3)]Gal(b1-3)GalNAc(a1-3)[Fuc(a1-2)]Gal(b1-4)GlcNAc
# Outline: as §1
# [27] = target: Fuc(a1-2)[GalNAc(a1-3)]Gal(b1-3)GalNAc(b1-3)Gal(a1-4)Gal(b1-4)Glc
# Outline: as §1
# [28] = target: Fuc(a1-2)[GalNAc(a1-3)]Gal(b1-3)GlcNAc
# Outline: as §1
# [29] = target: Fuc(a1-2)[GalNAc(a1-3)]Gal(b1-3)GlcNAc(b1-2)Man(a1-3)[Fuc(a1-2)[GalNAc(a1-3)]Gal(b1-3)GlcNAc(b1-2)Man(a1-6)]Man(b1-4)GlcNAc(b1-4)GlcNAc
# Outline: as §1
# [30] = target: Fuc(a1-2)[GalNAc(a1-3)]Gal(b1-3)GlcNAc(b1-2)Man(a1-3)[Fuc(a1-2)[GalNAc(a1-3)]Gal(b1-3)GlcNAc(b1-2)Man(a1-6)]Man(b1-4)GlcNAc(b1-4)[Fuc(a1-6)]GlcNAc
# Outline: as §1
# [31] = target: Fuc(a1-2)[GalNAc(a1-3)]Gal(b1-3)GlcNAc(b1-3)GalNAc
# Outline: as §1
# [32] = target: Fuc(a1-2)[GalNAc(a1-3)]Gal(b1-3)GlcNAc(b1-6)GalNAc
# Outline: as §1
# [33] = target: Fuc(a1-2)[GalNAc(a1-3)]Gal(b1-4)Glc
# Outline: as §1
# [34] = target: Fuc(a1-2)[GalNAc(a1-3)]Gal(b1-4)GlcNAc
# Outline: as §1
# [35] = target: Fuc(a1-2)[GalNAc(a1-3)]Gal(b1-4)GlcNAc(b1-2)Man
# Outline: as §1
# [36] = target: Fuc(a1-2)[GalNAc(a1-3)]Gal(b1-4)GlcNAc(b1-2)Man(a1-3)[Fuc(a1-2)[GalNAc(a1-3)]Gal(b1-4)GlcNAc(b1-2)Man(a1-6)]Man(b1-4)GlcNAc(b1-4)GlcNAc
# Outline: as §1
# [37] = target: Fuc(a1-2)[GalNAc(a1-3)]Gal(b1-4)GlcNAc(b1-2)Man(a1-3)[Fuc(a1-2)[GalNAc(a1-3)]Gal(b1-4)GlcNAc(b1-2)Man(a1-6)]Man(b1-4)GlcNAc(b1-4)[Fuc(a1-6)]GlcNAc
# Outline: as §1
# [38] = target: Fuc(a1-2)[GalNAc(a1-3)]Gal(b1-4)GlcNAc(b1-3)Gal(b1-4)GlcNAc
# Outline: as §1
# [39] = target: Fuc(a1-2)[GalNAc(a1-3)]Gal(b1-4)GlcNAc(b1-3)Gal(b1-4)GlcNAc(b1-3)Gal(b1-4)GlcNAc
# Outline: as §1
# [40] = target: Fuc(a1-2)[GalNAc(a1-3)]Gal(b1-4)GlcNAc(b1-3)GalNAc
# Outline: as §1
# [41] = target: Fuc(a1-2)[GalNAc(a1-3)]Gal(b1-4)GlcNAc(b1-3)[Fuc(a1-2)[GalNAc(a1-3)]Gal(b1-4)GlcNAc(b1-6)]GalNAc
# Outline: as §1
# [42] = target: Fuc(a1-2)[GalNAc(a1-3)]Gal(b1-4)GlcNAc(b1-6)GalNAc
# Outline: as §1
# [43] = target: Fuc(a1-2)[GalNAc(a1-3)]Gal(b1-4)[Fuc(a1-3)]GlcNAc
# Outline: as §1
# [44] = target: Fuc(a1-2)[GalNAc(a1-3)]Gal(b1-4)[Fuc(a1-3)]GlcNAc(b1-3)GalNAc
# Outline: as §1
# [45] = target: Fuc(a1-2)[GalNAc(a1-4)]Gal(b1-4)GlcNAc
# Outline: as §1
binder,measurement,setting,value
B1,glycan array binding signal (z-score),[1],-0.084
same,glycan array binding signal (z-score),[2],-0.121
same,glycan array binding signal (z-score),[3],-0.145
same,glycan array binding signal (z-score),[4],-0.135
same,glycan array binding signal (z-score),[5],-0.182
same,glycan array binding signal (z-score),[6],-0.139
same,glycan array binding signal (z-score),[7],-0.146
same,glycan array binding signal (z-score),[8],-0.152
same,glycan array binding signal (z-score),[9],-0.132
same,glycan array binding signal (z-score),[10],0.04
same,glycan array binding signal (z-score),[11],0.544
same,glycan array binding signal (z-score),[12],-0.143
same,glycan array binding signal (z-score),[13],-0.134
same,glycan array binding signal (z-score),[14],-0.156
same,glycan array binding signal (z-score),[15],-0.152
same,glycan array binding signal (z-score),[16],-0.132
same,glycan array binding signal (z-score),[17],-0.031
same,glycan array binding signal (z-score),[18],0.225
same,glycan array binding signal (z-score),[19],-0.149
same,glycan array binding signal (z-score),[20],-0.129
same,glycan array binding signal (z-score),[21],-0.141
same,glycan array binding signal (z-score),[22],-0.143
same,glycan array binding signal (z-score),[23],-0.146
same,glycan array binding signal (z-score),[24],-0.155
same,glycan array binding signal (z-score),[25],-0.147
same,glycan array binding signal (z-score),[26],-0.15
same,glycan array binding signal (z-score),[27],-0.157
same,glycan array binding signal (z-score),[28],-0.153
same,glycan array binding signal (z-score),[29],-0.098
same,glycan array binding signal (z-score),[30],0.281
same,glycan array binding signal (z-score),[31],-0.131
same,glycan array binding signal (z-score),[32],-0.147
same,glycan array binding signal (z-score),[33],-0.15
same,glycan array binding signal (z-score),[34],-0.151
same,glycan array binding signal (z-score),[35],-0.147
same,glycan array binding signal (z-score),[36],-0.093
same,glycan array binding signal (z-score),[37],0.365
same,glycan array binding signal (z-score),[38],-0.148
same,glycan array binding signal (z-score),[39],-0.075
same,glycan array binding signal (z-score),[40],-0.153
same,glycan array binding signal (z-score),[41],-0.143
same,glycan array binding signal (z-score),[42],-0.15
same,glycan array binding signal (z-score),[43],-0.135
same,glycan array binding signal (z-score),[44],-0.085
same,glycan array binding signal (z-score),[45],-0.146
